The full ranking holds about 110,000 compounds; the median of “z-score” is about -0.1, and the highest 2% start at about 2. The list shows a part of the results.

This assay concerns the target Metabotropic glutamate receptor 8 (Rattus norvegicus) (UniProt P70579). Briefly: mGluR8 Gi/Go-coupled signaling modulation – cell-based, rat, thallium flux, HTS, primary screen (AID 488969). The note with it: HEK293 rat mGluR8, GIRK (G protein-gated inwardly rectifying potassium channel) thallium flux, FluoZin2; at 10 µM; stronger effect = higher value; submaximal glutamate (EC20) added with thallium.
Chain of UniProt P70579 (P70579 whole entry, looked up): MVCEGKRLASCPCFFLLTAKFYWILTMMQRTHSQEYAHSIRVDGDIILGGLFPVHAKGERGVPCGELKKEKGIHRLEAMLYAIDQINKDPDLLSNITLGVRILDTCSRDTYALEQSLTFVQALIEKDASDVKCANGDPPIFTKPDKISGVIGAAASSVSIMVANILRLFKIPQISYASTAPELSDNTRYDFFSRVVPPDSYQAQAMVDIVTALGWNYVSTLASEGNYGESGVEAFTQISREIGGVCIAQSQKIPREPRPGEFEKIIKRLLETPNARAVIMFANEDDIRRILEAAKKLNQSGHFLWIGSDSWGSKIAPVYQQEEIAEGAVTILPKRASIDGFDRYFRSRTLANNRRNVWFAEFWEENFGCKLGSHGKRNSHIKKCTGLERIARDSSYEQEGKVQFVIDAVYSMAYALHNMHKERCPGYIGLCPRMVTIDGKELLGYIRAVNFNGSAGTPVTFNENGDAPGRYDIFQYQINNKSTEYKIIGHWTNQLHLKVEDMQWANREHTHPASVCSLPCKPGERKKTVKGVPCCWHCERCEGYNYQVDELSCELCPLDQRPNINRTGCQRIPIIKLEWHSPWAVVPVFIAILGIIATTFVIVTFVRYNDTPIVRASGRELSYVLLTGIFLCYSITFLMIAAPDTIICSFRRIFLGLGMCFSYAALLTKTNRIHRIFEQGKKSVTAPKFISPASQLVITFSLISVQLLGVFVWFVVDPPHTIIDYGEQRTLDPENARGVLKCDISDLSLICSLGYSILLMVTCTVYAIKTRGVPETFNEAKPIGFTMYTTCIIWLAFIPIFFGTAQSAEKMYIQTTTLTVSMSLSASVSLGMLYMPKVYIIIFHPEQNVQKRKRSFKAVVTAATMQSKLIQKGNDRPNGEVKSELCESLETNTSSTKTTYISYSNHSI
As to `Cn1c(CCN2CCN(c3ccc(F)cc3)CC2)nc2cc(NC(=O)c3ccco3)ccc21`, the z-score is -2.09.

In the case of `C1CCCCCC2(CCCCC1)OCC(CN1CCOCC1)O2` (stereo not drawn), the z-score came out at 0.0135.

Take `O=C(Oc1ccccc1[N+](=O)[O-])c1cccnc1`: the z-score is -0.126.

`Cc1cccc(C(=O)Oc2ccc(/C=N/O)cc2)c1` returned a z-score of 0.0873.

Turning to `COCc1cc(C)nc2sc(C(=O)OC)c(N)c12`, the z-score was -0.0512.

`COCCNC(=O)c1ccc(Cn2c(=S)[nH]c3cc4c(cc3c2=O)OCO4)cc1` came in with a z-score of -0.3.

`Cc1ccc(Nc2nc(Oc3ccc(=O)[nH]n3)nc(N(C)C)n2)cc1` returned a z-score of -0.00557.

The compound `Cc1ccc(S(=O)(=O)Nc2ccncc2)c(C)c1N(C)S(=O)(=O)c1ccc(F)cc1` displayed a z-score of -0.149.

The compound `C/C(=C\C(=O)c1cccnc1)Nc1ccc(C(=O)O)cc1` had a z-score of -0.131.

In turn, `CC(C)Sc1nc2sc(-c3ccccc3)cc2c(=O)n1N` returned a z-score of -0.258.

As to `O=[N+]([O-])c1ccc(N2CCN(CCO)CC2)cc1Sc1nc2ccccc2[nH]1`, the z-score was -0.579.

Compound `CCCCn1c(CNC(=O)C23CC4CC(CC(C4)C2)C3)nnc1SCC(=O)Nc1nnc(C)s1` yielded a z-score of -0.306.

In turn, `COc1cccc(C2NC(=O)c3ccccc3O2)c1OC` (stereo not drawn) came in with a z-score of 0.323.

As to `O=C(CCn1c(=O)sc2ccccc21)NCc1ccc2c(c1)OCO2`, the z-score was -0.209.

Compound `COCCNC(=S)NC12CC3CC(CC(C3)C1)C2` returned a z-score of -0.119.

With `COc1cc(-n2nnnc2SCC(=O)N2CCN(c3ccc(F)cc3)CC2)c(OC)cc1Cl`, the z-score worked out at 0.181.

Turning to `COc1ccc(C(=O)/C=C\N2CCOCC2)cc1`, the z-score is -0.512.

As for `Cc1ccc(OCCN2C(=O)c3ccccc3C2=O)c(C)c1`, the z-score was -0.139.

For the compound `Cc1ccc(-c2nnc3c4ccccc4c(C)nn23)cc1NC(=O)c1ccco1`, the z-score was -0.787.

Compound `FC(F)(F)c1ccccc1C1C2=C(Nc3ncnn31)c1ccccc1CCC2` (stereo not drawn) gave a z-score of -0.375.

In turn, `Cc1nnc(SCC(=O)NCc2ccco2)n1-c1ccc(F)cc1` yielded a z-score of -0.206.

`CCOC(=O)c1cc(-c2ccccc2)sc1NC(=O)C(C)N1C(=O)NC(C)(c2ccc(Cl)cc2)C1=O` (stereo not drawn): the z-score was -0.391.

The compound `O=C1NC(Nc2ccccn2)(C(F)(F)F)C(=O)N1c1ccc(F)cc1` (stereo not drawn) displayed a z-score of -0.0125.

`COc1ccc(-c2cc(C(=O)Oc3ccc([N+](=O)[O-])cc3)c3ccccc3n2)cc1` came in with a z-score of -0.189.

The compound `Cc1cccc(C)c1NC(=O)CCCN1CC(C)OC(C)C1` (stereo not drawn) registered a z-score of -0.0952.

Regarding `OCCCNc1nc(-c2ccc(Cl)cc2)nnc1-c1ccccc1`, the z-score was -0.927.

`O=C(Nc1ncc2c(n1)-c1ccccc1CC2)c1ccc(Cl)cc1` displayed a z-score of -0.19.

In turn, `COc1ccc(NC(=O)C2CCCN(S(=O)(=O)c3ccc4c(c3)oc(=O)n4C)C2)c(OC)c1` (stereo not drawn) had a z-score of -0.0132.

As to `COc1cc(/C=C/C2=NC(=O)C(C)(C)O2)ccc1O`, the z-score was 0.388.

On to `COc1ccc(CCNC(=O)c2cccnc2)cc1OC`, for which the z-score is -0.38.

`CC(C)(C)n1nnnc1CN1CCN(C(c2ccccc2)c2ccccc2)CC1` returned a z-score of -0.289.

`COc1ccc(CCN2C(=O)c3[nH]nc(-c4ccccc4O)c3C2c2cccc(Cl)c2)cc1` (stereo not drawn): the z-score came out at 0.144.

With `CCCOc1ccc(-c2nn(-c3ccccc3)cc2/C=C2\SC(N)=NC2=O)cc1C`, the z-score was -0.00817.

`O=C(OCC(O)CN1CCCCC1)C12CC3CC(CC(C3)C1)C2` (stereo not drawn) gave a z-score of 0.578.

`Cc1cc(C(F)(F)F)nc(SCC(=O)Nc2cc(C)on2)n1` showed a z-score of 0.254.

The compound `O=C1c2ccccc2C(=O)N1CCC(=O)N1CCc2ccccc21` registered a z-score of -0.497.

`CSCC[C@H](NC(=O)COc1ccc(Cl)cc1Cl)c1nc2ccccc2[nH]1` displayed a z-score of 0.437.

Compound `CC(C)Oc1ccc(CSC(=N)N)cc1` had a z-score of 0.155.

Consider `CSCCC(NC(=O)c1ccccc1)C(=O)NC1CCCC1` (stereo not drawn), for which the z-score was found to be 0.435.

The compound `NC(=O)C1CCN(C2CC(=O)N(Cc3ccc(N4CCCC4=O)cc3)C2=O)CC1` (stereo not drawn) showed a z-score of 0.514.

For the compound `COc1ccc(C(=O)CSc2nnc(-c3cc(C)on3)o2)cc1`, the z-score was -0.321.

Compound `CCOC(=O)N1CCC(N(CCOC)C(=O)Nc2ccc(C)c(C)c2)CC1` displayed a z-score of -0.232.

The compound `COc1ccccc1-n1c(=O)[nH]c2c(C(N)=O)nc(C3CCCCC3)nc21` gave a z-score of -0.356.

For the compound `O=C(Nc1ccc(N2CCN(Cc3ccccc3)CC2)cc1)c1ncn[nH]1`, the z-score is -0.484.

`O=c1[nH]n(-c2cccc3cccnc23)c(=O)c2ccccc12` showed a z-score of -0.927.

The compound `O=C(Cn1nnc2ccccc2c1=O)Nc1ccc2c(c1)CCC2` displayed a z-score of -0.0562.

Turning to `Cc1ccc(NC(=O)c2ccccc2Cl)c(Cl)c1`, the z-score was -0.239.

Consider `COC(=O)c1sccc1NC(=O)c1sccc1C`, for which the z-score was -0.117.

For the compound `COc1ccc(-c2noc(-c3ccccc3C(=O)Nc3cccc(OC)c3)n2)cc1`, the z-score was -0.272.

Consider `Cc1ccc(-c2nn(-c3ccccc3)cc2/C=C(\C#N)c2cccc(C#N)c2)o1`, for which the z-score turned out to be 0.0362.

For the compound `O=C(Oc1ccc(OC(=O)N2CCOCC2)cc1)c1ccccc1`, the z-score is -0.672.

Take `O=C(OCC(=O)N1CCc2ccccc21)c1ccccc1`: the z-score came out at 0.694.

Regarding `CC(C)CC1=NC(C(F)(F)F)(C(F)(F)F)c2c(n(CC(C)C)c(=O)[nH]c2=O)N1`, the z-score was 0.971.

In turn, `CC(C)(C)C(=O)Nc1ccc(Oc2ccc3c(c2)C(=O)N(c2ccc(O)cc2)C3=O)cc1` had a z-score of -0.214.

`O=C1CCCN1CC(O)CS(=O)(=O)c1ccccc1` (stereo not drawn) displayed a z-score of 0.0491.

`O=C(COc1ccc(Cl)cc1)Nc1ccc2oc(-c3ccncc3)nc2c1`: the z-score was 0.0431.

Take `Cc1c(NC(=O)c2cc3ccccc3oc2=O)c(=O)n(-c2ccccc2)n1C`: the z-score was -0.0487.

In turn, `Cc1ccc(-c2csc(=Nc3cccnc3)n2CCCn2ccnc2)cc1C` yielded a z-score of 0.094.

Take `CCOC(=O)CSc1nc2cc(C(=O)NCC3CCCO3)ccc2c(=O)n1Cc1ccco1` (stereo not drawn): the z-score is -0.125.

With `Cc1ccc(O)c(C2=NNC(O)(C(F)(F)F)C2)c1` (stereo not drawn), the z-score is -0.332.

The compound `COc1ccc(-n2nc3cc(C)c(NC(=S)NC(=O)c4ccccc4C)cc3n2)cc1` came in with a z-score of 0.601.

`Cc1cccc(N(C(=O)c2ccc(CN3CCOCC3)o2)C(C(=O)NC2CCCCC2)c2ccc(F)cc2)c1` (stereo not drawn): the z-score was -0.0528.

Compound `CCC(C(=O)NCc1ccco1)N(C(=O)CNS(=O)(=O)c1ccccc1)C1CCCCC1` (stereo not drawn) showed a z-score of -0.0212.

Regarding `CCN(CC(=O)Nc1ccc(NC(C)=O)cc1)C(=O)/C=C/c1cccs1`, the z-score was found to be 0.279.

Compound `COc1ccc(CC(=O)NCc2nnc(SCC(=O)N3CCN(c4ccccc4)CC3)n2C)cc1` had a z-score of -0.627.

In turn, `CCc1ccc(Nc2cc(=O)n(C3CCCCC3)c(=O)[nH]2)cc1` gave a z-score of -0.0576.

`CCOc1cccc(N(C(=O)Cc2cccs2)C(C(=O)NC2CCCCC2)c2cccn2C)c1` (stereo not drawn) returned a z-score of -0.0721.

The compound `CCOc1cc(/C=N/NC(=O)COc2nc(C)cc(COC)c2C#N)ccc1O` returned a z-score of 0.692.

These data come from PubChem BioAssay AID488969 (Vanderbilt High Throughput Screening Facility, 2010).
